# According to publication PMC7287031:
# B1: CYP3A4 (Homo sapiens) (protein)
# chain: MALIPDLAMETWLLLAVSLVLLYLYGTHSHGLFKKLGIPGPTPLPFLGNILSYHKGFCMFDMECHKKYGKVWGFYDGQQPVLAITDPDMIKTVLVKECYSVFTNRRPFGPVGFMKSAISIAEDEEWKRLRSLLSPTFTSGKLKEMVPIIAQYGDVLVRNLRREAETGKPVTLKDVFGAYSMDVITSTSFGVNIDSLNNPQDPFVENTKKLLRFDFLDPFFLSITVFPFLIPILEVLNICVFPREVTNFLRKSVKRMKESRLEDTQKHRVDFLQLMIDSQNSKETESHKALSDLELVAQSIIFIFAGYETTSSVLSFIMYELATHPDVQQKLQEEIDAVLPNKAPPTYDTVLQMEYLDMVVNETLRLFPIAMRLERVCKKDVEINGMFIPKGVVVMIPSYALHRDPKYWTEPEKFLPERFSKKNKDNIDPYIYTPFGSGPRNCIGMRFALMNMKLALIRVLQNFSFKPCKETQIPLKLSLGGLLQPEKPVVLKVESRDGTVSGA
# notes: purchased BD Biosciences
# Substrate: CN(C)C(=O)c1cc2cnc(Nc3ccc(N4CCNCC4)cn3)nc2n1C1CCCC1
# Experiment: Enzyme kinetics with recombinant CYP3A4 and scaling to HLM
# Assay type: in vitro ADME, human
# Details: other: recombinant CYP3A4, substrate inhibition model; 37.0 °C
protein,measurement,value
B1,Km,6.68 µM
same,kcat,0.205 s⁻¹
same,kcat/Km,30680 M⁻¹ s⁻¹
